From patent US9062124B2, “GIP-based mixed agonists for treatment of metabolic disorders and obesity” (priority 2008, dated 2015)
Not every detail of the peptide structures is certain; ends, links or a residue may be inferred. For part of these data: At least one compound was matched to its structure with a doubt left. Bridges are numbered along the chain shown (N, C = ends). Where no end group is shown, it is not given here. [ ]: non-standard residue; d: D form. Aib = CC(C)(N)C(=O)O

Experiments:
Type in all cases: cell-based
glucagon receptor = molecular target: T1, glucagon receptor (Homo sapiens, UniProt P47871); assay: cAMP synthesis functional assay (firefly luciferase reporter in HEK293 cells), glucagon receptor; details: for % activity*: Table 6, glucagon receptor; for Glucagon Receptor relative activity: Table 1, relative to the native hormone of the indicated receptor
T1 construct: expressed in transfected cells; host or cells: HEK293

GLP-1 receptor = molecular target: T2, GLP-1 receptor (Homo sapiens, UniProt P43220); assay: cAMP synthesis functional assay (firefly luciferase reporter in HEK293 cells), GLP-1 receptor; details: Table 1; relative to the native hormone of the indicated receptor
T2 construct: expressed in transfected cells; host or cells: HEK293

GIP receptor = molecular target: T3, GIP receptor (Homo sapiens, UniProt P48546); assay: cAMP synthesis functional assay (firefly luciferase reporter in HEK293 cells), GIP receptor; details: Table 1
T3 construct: expressed in transfected cells; host or cells: HEK293
T3 sequence (P48546 22-466): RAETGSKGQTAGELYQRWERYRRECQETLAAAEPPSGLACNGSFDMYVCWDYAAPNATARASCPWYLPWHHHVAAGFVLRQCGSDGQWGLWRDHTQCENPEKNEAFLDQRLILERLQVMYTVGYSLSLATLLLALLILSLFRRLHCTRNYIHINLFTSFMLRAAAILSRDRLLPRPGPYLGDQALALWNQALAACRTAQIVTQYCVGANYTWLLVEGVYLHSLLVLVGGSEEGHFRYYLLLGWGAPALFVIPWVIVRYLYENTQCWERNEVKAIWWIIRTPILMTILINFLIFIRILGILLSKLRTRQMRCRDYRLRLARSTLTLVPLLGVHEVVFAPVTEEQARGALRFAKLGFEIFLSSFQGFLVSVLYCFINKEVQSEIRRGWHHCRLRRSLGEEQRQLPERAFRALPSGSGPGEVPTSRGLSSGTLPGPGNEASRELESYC

T1 sequence (P47871 26-477): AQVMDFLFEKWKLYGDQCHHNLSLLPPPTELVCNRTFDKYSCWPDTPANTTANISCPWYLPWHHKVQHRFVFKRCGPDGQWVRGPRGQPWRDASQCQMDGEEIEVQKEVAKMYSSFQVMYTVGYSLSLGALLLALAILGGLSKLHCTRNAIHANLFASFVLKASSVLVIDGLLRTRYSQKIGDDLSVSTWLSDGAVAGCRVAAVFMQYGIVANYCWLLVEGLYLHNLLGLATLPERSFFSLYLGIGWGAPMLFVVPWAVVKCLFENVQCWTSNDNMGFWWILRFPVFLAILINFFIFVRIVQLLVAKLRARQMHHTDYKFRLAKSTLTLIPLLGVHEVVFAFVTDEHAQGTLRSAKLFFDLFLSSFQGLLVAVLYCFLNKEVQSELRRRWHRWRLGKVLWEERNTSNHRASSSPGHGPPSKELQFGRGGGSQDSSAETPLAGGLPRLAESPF
T2 sequence (P43220 24-463, species assumed): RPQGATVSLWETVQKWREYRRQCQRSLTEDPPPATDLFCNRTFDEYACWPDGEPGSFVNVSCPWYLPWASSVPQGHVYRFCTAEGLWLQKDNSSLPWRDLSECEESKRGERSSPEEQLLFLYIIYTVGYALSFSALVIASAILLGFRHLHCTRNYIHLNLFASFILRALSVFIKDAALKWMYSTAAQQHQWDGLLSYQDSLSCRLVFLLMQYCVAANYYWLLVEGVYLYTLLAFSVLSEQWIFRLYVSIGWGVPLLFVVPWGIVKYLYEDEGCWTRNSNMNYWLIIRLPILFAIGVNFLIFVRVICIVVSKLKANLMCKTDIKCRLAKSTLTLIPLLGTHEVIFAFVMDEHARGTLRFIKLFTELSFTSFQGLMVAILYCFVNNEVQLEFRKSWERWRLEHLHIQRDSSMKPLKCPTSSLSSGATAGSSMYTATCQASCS

Molecule	% activity* (glucagon receptor) [%]	further results
CCCC[C@H](NC(=O)[C@H](CC(C)C)NC(=O)[C@H](Cc1c[nH]c2ccccc12)NC(=O)[C@H](C)NC(=O)[C@@H](NC(=O)[C@H](Cc1ccccc1)NC(=O)[C@H](CCC(=O)O)NC(=O)[C@H](C)NC(=O)[C@H](C)NC(=O)[C@H](CCCNC(=N)N)NC(=O)[C@H](CCCNC(=N)N)NC(=O)[C@@H](NC(=O)[C@H](CC(=O)O)NC(=O)[C@H](CC(C)C)NC(=O)[C@H](Cc1ccc(O)cc1)NC(=O)[C@H](CCCCN)NC(=O)[C@H](CO)NC(=O)[C@H](Cc1ccc(O)cc1)NC(=O)[C@H](CC(=O)O)NC(=O)[C@H](CO)NC(=O)[C@@H](NC(=O)[C@H](Cc1ccccc1)NC(=O)[C@@H](NC(=O)CNC(=O)[C@H](CCC(N)=O)NC(=O)[C@H](CO)NC(=O)[C@@H](N)Cc1c[nH]cn1)[C@@H](C)O)[C@@H](C)O)[C@@H](C)O)C(C)C)C(=O)N[C@@H](CC(=O)O)C(=O)N[C@@H](CCC(=O)O)C(=O)O [SEQ ID NO: 242]	25	
CCCC[C@H](NC(=O)[C@H](CC(C)C)NC(=O)[C@H](Cc1c[nH]c2ccccc12)NC(=O)[C@H](C)NC(=O)[C@@H](NC(=O)[C@H](Cc1ccccc1)NC(=O)[C@H](CCC(=O)O)NC(=O)[C@H](C)NC(=O)[C@H](C)NC(=O)[C@H](CCCNC(=N)N)NC(=O)[C@H](CCCNC(=N)N)NC(=O)[C@@H](NC(=O)[C@H](CC(=O)O)NC(=O)[C@H](CC(C)C)NC(=O)[C@H](Cc1ccc(O)cc1)NC(=O)[C@H](CCCCN)NC(=O)[C@H](CO)NC(=O)[C@H](Cc1ccc(O)cc1)NC(=O)[C@H](CC(=O)O)NC(=O)[C@H](CO)NC(=O)[C@@H](NC(=O)[C@H](Cc1ccccc1)NC(=O)[C@@H](NC(=O)CNC(=O)[C@H](CSCNC(C)=O)NC(=O)[C@H](CO)NC(=O)[C@@H](N)Cc1c[nH]cn1)[C@@H](C)O)[C@@H](C)O)[C@@H](C)O)C(C)C)C(=O)N[C@@H](CC(=O)O)C(=O)N[C@@H](CCC(=O)O)C(=O)O [SEQ ID NO: 243]	33	
CCCC[C@H](NC(=O)[C@H](CC(C)C)NC(=O)[C@H](Cc1c[nH]c2ccccc12)NC(=O)[C@H](C)NC(=O)[C@@H](NC(=O)[C@H](Cc1ccccc1)NC(=O)[C@H](CCC(=O)O)NC(=O)[C@H](C)NC(=O)[C@H](C)NC(=O)[C@H](CCCNC(=N)N)NC(=O)[C@H](CCCNC(=N)N)NC(=O)[C@@H](NC(=O)[C@H](CC(=O)O)NC(=O)[C@H](CC(C)C)NC(=O)[C@H](Cc1ccc(O)cc1)NC(=O)[C@H](CCCCN)NC(=O)[C@H](CO)NC(=O)[C@H](Cc1ccc(O)cc1)NC(=O)[C@H](CC(=O)O)NC(=O)[C@H](CO)NC(=O)[C@@H](NC(=O)[C@H](Cc1ccccc1)NC(=O)[C@@H](NC(=O)CNC(=O)[C@H](CCNC(C)=O)NC(=O)[C@H](CO)NC(=O)[C@@H](N)Cc1c[nH]cn1)[C@@H](C)O)[C@@H](C)O)[C@@H](C)O)C(C)C)C(=O)N[C@@H](CC(=O)O)C(=O)N[C@@H](CCC(=O)O)C(=O)O [SEQ ID NO: 244]	19	
CCCC[C@H](NC(=O)[C@H](CC(C)C)NC(=O)[C@H](Cc1c[nH]c2ccccc12)NC(=O)[C@H](C)NC(=O)[C@@H](NC(=O)[C@H](Cc1ccccc1)NC(=O)[C@H](CCC(=O)O)NC(=O)[C@H](C)NC(=O)[C@H](C)NC(=O)[C@H](CCCNC(=N)N)NC(=O)[C@H](CCCNC(=N)N)NC(=O)[C@@H](NC(=O)[C@H](CC(=O)O)NC(=O)[C@H](CC(C)C)NC(=O)[C@H](Cc1ccc(O)cc1)NC(=O)[C@H](CCCCN)NC(=O)[C@H](CO)NC(=O)[C@H](Cc1ccc(O)cc1)NC(=O)[C@H](CC(=O)O)NC(=O)[C@H](CO)NC(=O)[C@@H](NC(=O)[C@H](Cc1ccccc1)NC(=O)[C@@H](NC(=O)CNC(=O)[C@H](CNC(N)=O)NC(=O)[C@H](CO)NC(=O)[C@@H](N)Cc1c[nH]cn1)[C@@H](C)O)[C@@H](C)O)[C@@H](C)O)C(C)C)C(=O)N[C@@H](CC(=O)O)C(=O)N[C@@H](CCC(=O)O)C(=O)O [SEQ ID NO: 245]	13	
CCCC[C@H](NC(=O)[C@H](CC(C)C)NC(=O)[C@H](Cc1c[nH]c2ccccc12)NC(=O)[C@H](C)NC(=O)[C@@H](NC(=O)[C@H](Cc1ccccc1)NC(=O)[C@H](CCC(=O)O)NC(=O)[C@H](C)NC(=O)[C@H](C)NC(=O)[C@H](CCCNC(=N)N)NC(=O)[C@H](CCCNC(=N)N)NC(=O)[C@@H](NC(=O)[C@H](CC(=O)O)NC(=O)[C@H](CC(C)C)NC(=O)[C@H](Cc1ccc(O)cc1)NC(=O)[C@H](CCCCN)NC(=O)[C@H](CO)NC(=O)[C@H](Cc1ccc(O)cc1)NC(=O)[C@H](CC(=O)O)NC(=O)[C@H](CO)NC(=O)[C@@H](NC(=O)[C@H](Cc1ccccc1)NC(=O)[C@@H](NC(=O)CNC(=O)[C@H](CCC(=O)NC)NC(=O)[C@H](CO)NC(=O)[C@@H](N)Cc1c[nH]cn1)[C@@H](C)O)[C@@H](C)O)[C@@H](C)O)C(C)C)C(=O)N[C@@H](CC(=O)O)C(=O)N[C@@H](CCC(=O)O)C(=O)O [SEQ ID NO: 246]	13	
CCCC[C@H](NC(=O)[C@H](CC(C)C)NC(=O)[C@H](Cc1c[nH]c2ccccc12)NC(=O)[C@H](C)NC(=O)[C@@H](NC(=O)[C@H](Cc1ccccc1)NC(=O)[C@H](CCC(=O)O)NC(=O)[C@H](C)NC(=O)[C@H](C)NC(=O)[C@H](CCCNC(=N)N)NC(=O)[C@H](CCCNC(=N)N)NC(=O)[C@@H](NC(=O)[C@H](CC(=O)O)NC(=O)[C@H](CC(C)C)NC(=O)[C@H](Cc1ccc(O)cc1)NC(=O)[C@H](CCCCN)NC(=O)[C@H](CO)NC(=O)[C@H](Cc1ccc(O)cc1)NC(=O)[C@H](CC(=O)O)NC(=O)[C@H](CO)NC(=O)[C@@H](NC(=O)[C@H](Cc1ccccc1)NC(=O)[C@@H](NC(=O)CNC(=O)[C@H](CC[S+](C)[O-])NC(=O)[C@H](CO)NC(=O)[C@@H](N)Cc1c[nH]cn1)[C@@H](C)O)[C@@H](C)O)[C@@H](C)O)C(C)C)C(=O)N[C@@H](CC(=O)O)C(=O)N[C@@H](CCC(=O)O)C(=O)O (stereo partly drawn) [SEQ ID NO: 247]	7	
CCCC[C@H](NC(=O)[C@H](CC(C)C)NC(=O)[C@H](Cc1c[nH]c2ccccc12)NC(=O)[C@H](C)NC(=O)[C@@H](NC(=O)[C@H](Cc1ccccc1)NC(=O)[C@H](CCC(=O)O)NC(=O)[C@H](C)NC(=O)[C@H](C)NC(=O)[C@H](CCCNC(=N)N)NC(=O)[C@H](CCCNC(=N)N)NC(=O)[C@@H](NC(=O)[C@H](CC(=O)O)NC(=O)[C@H](CC(C)C)NC(=O)[C@H](Cc1ccc(O)cc1)NC(=O)[C@H](CCCCN)NC(=O)[C@H](CO)NC(=O)[C@H](Cc1ccc(O)cc1)NC(=O)[C@H](CC(=O)O)NC(=O)[C@H](CO)NC(=O)[C@@H](NC(=O)[C@H](Cc1ccccc1)NC(=O)[C@@H](NC(=O)CNC(=O)[C@H](CCCNC(C)=O)NC(=O)[C@H](CO)NC(=O)[C@@H](N)Cc1c[nH]cn1)[C@@H](C)O)[C@@H](C)O)[C@@H](C)O)C(C)C)C(=O)N[C@@H](CC(=O)O)C(=O)N[C@@H](CCC(=O)O)C(=O)O [SEQ ID NO: 248]	7	
CSCC[C@H](NC(=O)[C@H](CC(C)C)NC(=O)[C@H](Cc1c[nH]c2ccccc12)NC(=O)[C@H](C)NC(=O)[C@@H](NC(=O)[C@H](Cc1ccccc1)NC(=O)[C@H](CC(=O)O)NC(=O)[C@H](C)NC(=O)[C@H](C)NC(=O)[C@H](CCCNC(=N)N)NC(=O)[C@H](CCCNC(=N)N)NC(=O)C(C)(C)NC(=O)[C@H](CC(=O)O)NC(=O)[C@H](CC(C)C)NC(=O)[C@H](Cc1ccc(O)cc1)NC(=O)[C@H](CCCCN)NC(=O)[C@H](CO)NC(=O)[C@H](Cc1ccc(O)cc1)NC(=O)[C@H](CC(=O)O)NC(=O)[C@H](CO)NC(=O)[C@@H](NC(=O)[C@H](Cc1ccccc1)NC(=O)[C@@H](NC(=O)CNC(=O)[C@H](CCC(N)=O)NC(=O)[C@H](CO)NC(=O)[C@@H](N)Cc1c[nH]cn1)[C@@H](C)O)[C@@H](C)O)C(C)C)C(=O)N[C@@H](CC(=O)O)C(=O)N[C@@H](CCC(=O)O)C(=O)O [SEQ ID NO: 249]	15	
CSCC[C@H](NC(=O)[C@H](CC(C)C)NC(=O)[C@H](Cc1c[nH]c2ccccc12)NC(=O)[C@H](C)NC(=O)[C@@H](NC(=O)[C@H](Cc1ccccc1)NC(=O)[C@H](CC(=O)O)NC(=O)[C@H](C)NC(=O)[C@H](C)NC(=O)[C@H](CCCNC(=N)N)NC(=O)[C@H](CCCNC(=N)N)NC(=O)C(C)(C)NC(=O)[C@H](CC(=O)O)NC(=O)[C@H](CC(C)C)NC(=O)[C@H](Cc1ccc(O)cc1)NC(=O)[C@H](CCCCN)NC(=O)[C@H](CO)NC(=O)[C@H](Cc1ccc(O)cc1)NC(=O)[C@H](CC(=O)O)NC(=O)[C@H](CO)NC(=O)[C@@H](NC(=O)[C@H](Cc1ccccc1)NC(=O)[C@@H](NC(=O)CNC(=O)[C@H](CCNC(C)=O)NC(=O)[C@H](CO)NC(=O)[C@@H](N)Cc1c[nH]cn1)[C@@H](C)O)[C@@H](C)O)C(C)C)C(=O)N[C@@H](CC(=O)O)C(=O)N[C@@H](CCC(=O)O)C(=O)O [SEQ ID NO: 250]	86	
Y[Aib]EGTFISDYSIAMDKIHQQDFVCWLLAQKGKKNWLKHNITQ-NH2 [mt-102]		Glucagon Receptor relative activity (glucagon receptor): 0.02%; GLP-1 Receptor relative activity (GLP-1 receptor): 0.06%
Y[Aib]EGTFTSDYSIYLDEQAAKEFVNWLLAGKGKKNWLKHNITQC-NH2 (lactam 16-20) [mt-206]		EC50 (GIP receptor): 0.115 nM
Y[Aib]QGTFTSDYSIYLDEQAAKEFVNWLLAGKGKKNWLKHNITQC-NH2 (lactam 16-20) [mt-207]		Glucagon Receptor relative activity (glucagon receptor): 1.31%; GLP-1 Receptor relative activity (GLP-1 receptor): 42.47%; GIP Receptor relative activity (GIP receptor; relative to the native hormone of the indicated receptor): 2.41%
